# Results reported in paper PMC9911399, “Two distinct binding modes provide the RNA-binding protein RbFox with extraordinary sequence specificity”.
# Residue numbers refer to the chain shown, from its start. Some of the results follow.
# T1: RBFOX1 RRM RbFoxmut (Fox-RRM*) (Homo sapiens, UniProt Q9NWB1 109-208, R118D;E147R;N151S;E152T)
# T1 sequence: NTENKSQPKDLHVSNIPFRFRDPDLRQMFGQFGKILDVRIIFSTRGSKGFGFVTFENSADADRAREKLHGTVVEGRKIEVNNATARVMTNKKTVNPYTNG
# B1: UGCCCAU (DNA:RNA)
# RNA: GGGAGACCGGAAUUCAGAUUGUCCUGCCCAUUUAAAUCCCGUCGUAGCCACCA
# DNA 1: CAATCTGAATTCCGGTCTCCC
# DNA 2: TGGTGGCTACGACGGGATT
# B2: GGGCGAC (DNA:RNA)
# RNA: B1 RNA with U25G, C27G, C29G, U31C
# DNA 1: CAATCTGAATTCCGGTCTCCC
# DNA 2: TGGTGGCTACGACGGGATT
# B3: GGCCAAU (DNA:RNA)
# RNA: B1 RNA with U25G, C29A
# DNA 1: CAATCTGAATTCCGGTCTCCC
# DNA 2: TGGTGGCTACGACGGGATT
# B4: CAGCGUU (DNA:RNA)
# RNA: B1 RNA with U25C, G26A, C27G, C29G, A30U
# DNA 1: CAATCTGAATTCCGGTCTCCC
# DNA 2: TGGTGGCTACGACGGGATT
# B5: AAUACUU (DNA:RNA)
# RNA: B1 RNA with U25A, G26A, C27U, C28A, A30U
# DNA 1: CAATCTGAATTCCGGTCTCCC
# DNA 2: TGGTGGCTACGACGGGATT
# B6: GUUGUAG (DNA:RNA)
# RNA: B1 RNA with U25G, G26U, C27U, C28G, C29U, U31G
# DNA 1: CAATCTGAATTCCGGTCTCCC
# DNA 2: TGGTGGCTACGACGGGATT
# B7: UCCCGUG (DNA:RNA)
# RNA: B1 RNA with G26C, C29G, A30U, U31G
# DNA 1: CAATCTGAATTCCGGTCTCCC
# DNA 2: TGGTGGCTACGACGGGATT
# B8: ACCAGGU (DNA:RNA)
# RNA: B1 RNA with U25A, G26C, C28A, C29G, A30G
# DNA 1: CAATCTGAATTCCGGTCTCCC
# DNA 2: TGGTGGCTACGACGGGATT
# B9: GAUAGUC (DNA:RNA)
# RNA: GGGAGACCGGAAUUCAGAUUGUCCGAUAGUCUUAAAUCCCGUCGUAGCCACCA
# DNA 1: CAATCTGAATTCCGGTCTCCC
# DNA 2: TGGTGGCTACGACGGGATT
# Target: T1, RBFOX1 RRM RbFoxmut (Fox-RRM*)
# Experiment: EMSA; HiTS-Eq, 1 nM pool, 10 min; buffer printed only for the single-RNA assays: 10 mM Tris pH 7.5, 150 mM NaCl, 3.4 mM EDTA, 0.001% NP-40, 30 C
# Details: tags: His6 N-terminal (pET28a); label: 5' 32P
# Summary of the method: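 A pool of RNA with 7 randomized nucleotides, 5′-radiolabelled and with DNA-annealed flanks, was equilibrated at 1 nM for 10 min in 50 µL with purified RbFox RRM, wild type or mutant, across increasing protein concentrations. Free RNA was separated by 8% native PAGE, excised, reverse-transcribed, barcoded by PCR and sequenced. Relative association constants were obtained from read-count changes of each RNA species versus the control reaction and normalised to the cognate motif.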
row,Binder,binding signal
1,B1,0.086 KA relative to UGCAUGU
2,B2,0.0925 KA relative to UGCAUGU
3,B3,0.0535 KA relative to UGCAUGU
4,B4,0.112 KA relative to UGCAUGU
5,B5,0.124 KA relative to UGCAUGU
6,B6,0.168 KA relative to UGCAUGU
7,B7,0.117 KA relative to UGCAUGU
8,B8,0.11 KA relative to UGCAUGU
9,B9,0.0781 KA relative to UGCAUGU
